Laboratory results reported in PMC9911399, “Two distinct binding modes provide the RNA-binding protein RbFox with extraordinary sequence specificity”.
Residue numbers refer to the chain shown, from its start. The list shows a part of the results.

T1: RBFOX1 RRM RbFoxmut (Fox-RRM*) (Homo sapiens, UniProt Q9NWB1 109-208, R118D;E147R;N151S;E152T)
T1 sequence: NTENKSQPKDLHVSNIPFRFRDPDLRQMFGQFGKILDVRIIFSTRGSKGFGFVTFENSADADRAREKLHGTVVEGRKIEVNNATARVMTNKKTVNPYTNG

B1: GUAUGUU (DNA:RNA)
RNA: GGGAGACCGGAAUUCAGAUUGUCCGUAUGUUUUAAAUCCCGUCGUAGCCACCA
DNA 1: CAATCTGAATTCCGGTCTCCC
DNA 2: TGGTGGCTACGACGGGATT
B2: CCGGGUG (DNA:RNA)
RNA: B1 RNA with G25C, U26C, A27G, U28G, U31G
DNA 1: CAATCTGAATTCCGGTCTCCC
DNA 2: TGGTGGCTACGACGGGATT
B3: GUACUGA (DNA:RNA)
RNA: B1 RNA with U28C, G29U, U30G, U31A
DNA 1: CAATCTGAATTCCGGTCTCCC
DNA 2: TGGTGGCTACGACGGGATT
B4: GCAUUCG (DNA:RNA)
RNA: B1 RNA with U26C, G29U, U30C, U31G
DNA 1: CAATCTGAATTCCGGTCTCCC
DNA 2: TGGTGGCTACGACGGGATT
B5: GUGACUG (DNA:RNA)
RNA: B1 RNA with A27G, U28A, G29C, U31G
DNA 1: CAATCTGAATTCCGGTCTCCC
DNA 2: TGGTGGCTACGACGGGATT
B6: CAACUCA (DNA:RNA)
RNA: B1 RNA with G25C, U26A, U28C, G29U, U30C, U31A
DNA 1: CAATCTGAATTCCGGTCTCCC
DNA 2: TGGTGGCTACGACGGGATT
B7: AAUAAAA (DNA:RNA)
RNA: GGGAGACCGGAAUUCAGAUUGUCCAAUAAAAUUAAAUCCCGUCGUAGCCACCA
DNA 1: CAATCTGAATTCCGGTCTCCC
DNA 2: TGGTGGCTACGACGGGATT
B8: UCUUCAG (DNA:RNA)
RNA: B7 RNA with A25U, A26C, A28U, A29C, A31G
DNA 1: CAATCTGAATTCCGGTCTCCC
DNA 2: TGGTGGCTACGACGGGATT
B9: GGUCGGU (DNA:RNA)
RNA: B1 RNA with U26G, A27U, U28C, U30G
DNA 1: CAATCTGAATTCCGGTCTCCC
DNA 2: TGGTGGCTACGACGGGATT
B10: AAAGAAG (DNA:RNA)
RNA: B7 RNA with U27A, A28G, A31G
DNA 1: CAATCTGAATTCCGGTCTCCC
DNA 2: TGGTGGCTACGACGGGATT
B11: UUUCAGC (DNA:RNA)
RNA: B7 RNA with A25U, A26U, A28C, A30G, A31C
DNA 1: CAATCTGAATTCCGGTCTCCC
DNA 2: TGGTGGCTACGACGGGATT
B12: AGCAGGU (DNA:RNA)
RNA: B7 RNA with A26G, U27C, A29G, A30G, A31U
DNA 1: CAATCTGAATTCCGGTCTCCC
DNA 2: TGGTGGCTACGACGGGATT
B13: CAUUCGA (DNA:RNA)
RNA: B7 RNA with A25C, A28U, A29C, A30G
DNA 1: CAATCTGAATTCCGGTCTCCC
DNA 2: TGGTGGCTACGACGGGATT
B14: AAAAGAC (DNA:RNA)
RNA: B7 RNA with U27A, A29G, A31C
DNA 1: CAATCTGAATTCCGGTCTCCC
DNA 2: TGGTGGCTACGACGGGATT
B15: CUGGCGA (DNA:RNA)
RNA: B7 RNA with A25C, A26U, U27G, A28G, A29C, A30G
DNA 1: CAATCTGAATTCCGGTCTCCC
DNA 2: TGGTGGCTACGACGGGATT
B16: CAGCACU (DNA:RNA)
RNA: B7 RNA with A25C, U27G, A28C, A30C, A31U
DNA 1: CAATCTGAATTCCGGTCTCCC
DNA 2: TGGTGGCTACGACGGGATT
B17: GUCCACA (DNA:RNA)
RNA: B7 RNA with A25G, A26U, U27C, A28C, A30C
DNA 1: CAATCTGAATTCCGGTCTCCC
DNA 2: TGGTGGCTACGACGGGATT
B18: GUUUAAA (DNA:RNA)
RNA: B7 RNA with A25G, A26U, A28U
DNA 1: CAATCTGAATTCCGGTCTCCC
DNA 2: TGGTGGCTACGACGGGATT
B19: UCAAGCG (DNA:RNA)
RNA: B1 RNA with G25U, U26C, U28A, U30C, U31G
DNA 1: CAATCTGAATTCCGGTCTCCC
DNA 2: TGGTGGCTACGACGGGATT
B20: GUUUUAG (DNA:RNA)
RNA: B1 RNA with A27U, G29U, U30A, U31G
DNA 1: CAATCTGAATTCCGGTCTCCC
DNA 2: TGGTGGCTACGACGGGATT
B21: GGACAUU (DNA:RNA)
RNA: B1 RNA with U26G, U28C, G29A
DNA 1: CAATCTGAATTCCGGTCTCCC
DNA 2: TGGTGGCTACGACGGGATT
B22: ACACACC (DNA:RNA)
RNA: B7 RNA with A26C, U27A, A28C, A30C, A31C
DNA 1: CAATCTGAATTCCGGTCTCCC
DNA 2: TGGTGGCTACGACGGGATT
B23: AGUAGGG (DNA:RNA)
RNA: B7 RNA with A26G, A29G, A30G, A31G
DNA 1: CAATCTGAATTCCGGTCTCCC
DNA 2: TGGTGGCTACGACGGGATT
B24: GAAUCCU (DNA:RNA)
RNA: B1 RNA with U26A, G29C, U30C
DNA 1: CAATCTGAATTCCGGTCTCCC
DNA 2: TGGTGGCTACGACGGGATT
B25: UACAUUA (DNA:RNA)
RNA: B7 RNA with A25U, U27C, A29U, A30U
DNA 1: CAATCTGAATTCCGGTCTCCC
DNA 2: TGGTGGCTACGACGGGATT
B26: GCCUUGG (DNA:RNA)
RNA: B1 RNA with U26C, A27C, G29U, U30G, U31G
DNA 1: CAATCTGAATTCCGGTCTCCC
DNA 2: TGGTGGCTACGACGGGATT
B27: CAAUGCA (DNA:RNA)
RNA: B1 RNA with G25C, U26A, U30C, U31A
DNA 1: CAATCTGAATTCCGGTCTCCC
DNA 2: TGGTGGCTACGACGGGATT
B28: AUGGCUG (DNA:RNA)
RNA: B1 RNA with G25A, A27G, U28G, G29C, U31G
DNA 1: CAATCTGAATTCCGGTCTCCC
DNA 2: TGGTGGCTACGACGGGATT
B29: UUGGCCA (DNA:RNA)
RNA: B7 RNA with A25U, A26U, U27G, A28G, A29C, A30C
DNA 1: CAATCTGAATTCCGGTCTCCC
DNA 2: TGGTGGCTACGACGGGATT
B30: UACAUCU (DNA:RNA)
RNA: B7 RNA with A25U, U27C, A29U, A30C, A31U
DNA 1: CAATCTGAATTCCGGTCTCCC
DNA 2: TGGTGGCTACGACGGGATT
B31: GGCGGGU (DNA:RNA)
RNA: B1 RNA with U26G, A27C, U28G, U30G
DNA 1: CAATCTGAATTCCGGTCTCCC
DNA 2: TGGTGGCTACGACGGGATT

What follows are binders tested against T1, RBFOX1 RRM RbFoxmut (Fox-RRM*) (assay: EMSA; HiTS-Eq, 1 nM pool, 10 min; buffer printed only for the single-RNA assays: 10 mM Tris pH 7.5, 150 mM NaCl, 3.4 mM EDTA, 0.001% NP-40, 30 C). Conditions: tags: His6 N-terminal (pET28a); label: 5' 32P.
In short: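 Purified RbFox RRM (wild type or mutant) was equilibrated for 10 min in 50 µL with 1 nM of a 5′-radiolabelled pool of RNA with 7 randomized nucleotides, its flanks annealed to DNA oligonucleotides, across increasing protein concentrations. Free RNA was separated by 8% native PAGE, excised, reverse-transcribed, PCR-barcoded and sequenced on an Illumina HiSeq 2500. Relative association constants came from read-count changes of each variant against the control reaction, normalised to the cognate motif.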
In the case of B1, the binding signal is reported as 0.497 KA relative to UGCAUGU.
B2 was tested, and the binding signal was 0.163 KA relative to UGCAUGU.
With B3 the binding signal was 0.108 KA relative to UGCAUGU.
With B4 the binding signal was 0.119 KA relative to UGCAUGU.
For B5, the binding signal was 0.387 KA relative to UGCAUGU.
In the case of B6, the binding signal is reported as 0.138 KA relative to UGCAUGU.
With B7 the binding signal was 0.067 KA relative to UGCAUGU.
With B8 the binding signal was 0.113 KA relative to UGCAUGU.
For B9, the binding signal was 0.101 KA relative to UGCAUGU.
For B10, the binding signal was 0.0954 KA relative to UGCAUGU.
In the case of B11, the binding signal is reported as 0.0933 KA relative to UGCAUGU.
For B12, the binding signal was 0.117 KA relative to UGCAUGU.
B13 was tested, and the binding signal was 0.0833 KA relative to UGCAUGU.
With B14 the binding signal was 0.0642 KA relative to UGCAUGU.
In the case of B15, the binding signal is reported as 0.083 KA relative to UGCAUGU.
For B16, the binding signal was 0.0877 KA relative to UGCAUGU.
For B17, the binding signal was 0.113 KA relative to UGCAUGU.
In the case of B18, the binding signal is reported as 0.121 KA relative to UGCAUGU.
With B19 the binding signal was 0.123 KA relative to UGCAUGU.
In the case of B20, the binding signal is reported as 0.121 KA relative to UGCAUGU.
B21 was tested, and the binding signal was 0.0676 KA relative to UGCAUGU.
B22 was tested, and the binding signal was 0.0425 KA relative to UGCAUGU.
In the case of B23, the binding signal is reported as 0.0759 KA relative to UGCAUGU.
In the case of B24, the binding signal is reported as 0.171 KA relative to UGCAUGU.
With B25 the binding signal was 0.0825 KA relative to UGCAUGU.
B26 was tested, and the binding signal was 0.501 KA relative to UGCAUGU.
For B27, the binding signal was 0.172 KA relative to UGCAUGU.
In the case of B28, the binding signal is reported as 0.333 KA relative to UGCAUGU.
B29 was tested, and the binding signal was 0.116 KA relative to UGCAUGU.
B30 was tested, and the binding signal was 0.0705 KA relative to UGCAUGU.
For B31, the binding signal was 0.0893 KA relative to UGCAUGU.
